Measurements: PubChem BioAssay AID488969 (Vanderbilt High Throughput Screening Facility, 2010)
Over roughly 110,000 compounds, “z-score” has its median near -0.1; the highest 2% begin near 2. This is one part of the list. Activity calls are given as the source filed them.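 How the source made its calls: active means z-score in the third read window above 3 or below -3; inactive means the rest.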

The compounds below were run against Metabotropic glutamate receptor 8 (Rattus norvegicus) (UniProt P70579) (assay: rat mGluR8 modulators via GIRK flux, primary screen, cell-based, thallium flux, HTS (AID 488969)). Conditions: HEK293 rat mGluR8, GIRK (G protein-gated inwardly rectifying potassium channel) thallium flux, FluoZin2; at 10 µM; stronger effect = higher value; submaximal glutamate (EC20) added with thallium.
Chain of UniProt P70579 (P70579 whole entry, looked up): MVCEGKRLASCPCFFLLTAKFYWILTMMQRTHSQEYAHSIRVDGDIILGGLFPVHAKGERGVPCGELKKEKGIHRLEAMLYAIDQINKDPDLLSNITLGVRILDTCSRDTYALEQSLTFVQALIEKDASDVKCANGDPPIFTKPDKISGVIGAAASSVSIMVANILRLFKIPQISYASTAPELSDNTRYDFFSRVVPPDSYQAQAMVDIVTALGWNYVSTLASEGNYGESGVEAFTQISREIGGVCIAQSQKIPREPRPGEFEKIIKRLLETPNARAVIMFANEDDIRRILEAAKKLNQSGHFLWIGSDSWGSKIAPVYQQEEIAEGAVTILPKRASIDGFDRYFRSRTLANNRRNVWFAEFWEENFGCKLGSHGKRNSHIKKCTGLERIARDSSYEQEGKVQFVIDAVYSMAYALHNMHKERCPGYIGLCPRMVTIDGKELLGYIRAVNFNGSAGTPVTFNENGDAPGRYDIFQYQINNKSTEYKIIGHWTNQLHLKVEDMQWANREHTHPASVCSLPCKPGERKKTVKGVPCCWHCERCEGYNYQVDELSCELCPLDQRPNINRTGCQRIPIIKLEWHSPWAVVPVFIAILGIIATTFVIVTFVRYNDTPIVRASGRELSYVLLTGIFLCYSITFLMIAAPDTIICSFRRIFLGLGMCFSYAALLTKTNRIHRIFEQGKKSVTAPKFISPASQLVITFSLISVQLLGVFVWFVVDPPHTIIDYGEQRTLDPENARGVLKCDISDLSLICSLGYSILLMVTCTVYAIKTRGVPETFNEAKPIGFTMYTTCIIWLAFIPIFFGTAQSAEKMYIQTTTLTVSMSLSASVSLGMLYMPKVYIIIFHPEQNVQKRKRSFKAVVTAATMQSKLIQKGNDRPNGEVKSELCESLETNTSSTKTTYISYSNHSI

Row | Structure (SMILES) | z-score
1 | CCOc1ccc(NC(=O)CCN2CCCCC2)cc1 | 0.253
2 | CCCCc1nc2ccccc2n1Cc1nnc2n1-c1ccccc1SC2 | -0.163
3 | CCC(C)Nc1nc(OC(C(F)(F)F)C(F)(F)F)nc(OC(C(F)(F)F)C(F)(F)F)n1 (stereo not given) | 0.234
4 | CC1(C)COC(c2cccn2Cc2ccc(F)cc2Cl)=N1 | 0.0294
5 | CC1CC(C)(C)NC(=S)N1CC(=O)NCc1ccccc1Cl (stereo not given) | -0.127
6 | COc1ccc(CN2C(=O)c3ccccc3C(/C=N\OCc3ccc(C)cc3)C2=O)cc1 (stereo not given) | 2.42
7 | O=C(N/N=C/c1c[nH]c2ccc(Br)cc12)c1ccncc1 | -0.431
8 | COc1cc(OC)cc(C(=O)N2CCN(C(=O)c3ccc(OC)c(OC)c3)CC2)c1 | -0.111
9 | O=C(O)c1ccc(NCc2ccncc2)cc1 | 0.229
10 | Cc1cc(NC(=O)c2cccc(S(=O)(=O)N3CCCCCC3)c2)no1 | 0.223
11 | O=C(Cc1csc(N2CCOCC2)n1)N/N=C/c1ccc(Cl)cc1Cl | -0.885
12 | COc1cccc(Nc2nc(-c3sc(NC(=O)c4ccco4)nc3C)cs2)c1 | 0.022
13 | N#CC1=C(Nc2ccccc2)SC=C(c2ccc(F)cc2)N=C1N1CCOCC1 | 0.177
14 | COc1cc2c(cc1NC(=O)CN1CCN(S(=O)(=O)c3ccccc3F)CC1)oc1ccccc12 | 0.0078
15 | CCn1c(-c2csc3c2CCC(C)C3)n[nH]c1=S (stereo not given) | 1.49
16 | COc1ccc2sc(N3C(=O)C4CC=C(C)CC4C3=O)nc2c1 (stereo not given) | -0.425
17 | O=S(=O)(c1cc(-c2nnc(-c3ccc(Br)cc3)o2)ccc1Br)N1CCCCCC1 | -0.167
18 | COc1cc(/C=C2/SC(=O)N(Cc3ccccc3)C2=O)ccc1OCc1ccncc1 | -0.0883
19 | Cc1noc(C)c1COC(=O)c1ccc2c(c1)S(=O)(=O)c1ccccc1C2=O | -0.518
20 | Cc1ccccc1-n1c(=O)cc(N2CCC3(CC2)OCCO3)[nH]c1=O | 0.33
21 | Cc1onc(C(=O)N2CCN(c3ccccc3F)CC2)c1-c1ccccc1Cl | -0.226
22 | Cc1ccc(NC(=O)C2CC(=O)N/C(=N/NC(=O)c3ccc(C)cc3)S2)cc1 (stereo not given) | -0.457
23 | COc1ccc(OCC(=O)OCC(=O)NCc2ccc(F)cc2)cc1 | -0.136
24 | CCNc1nc(CC)nc2c1oc1ccccc12 | -0.918

Row | Structure (SMILES) | z-score
25 | CCN(c1ccc(C)c(C)c1)S(=O)(=O)c1c(C)[nH]c(=O)[nH]c1=O | -0.525
26 | COc1ccc(C)cc1NC(=S)N1CCN(c2ccccn2)CC1 | -0.0513
27 | Cc1cc(C(=O)COC(=O)C2=NNC(=O)CC2)c(C)n1-c1ccccc1 | -0.44
28 | Cc1ccc(C(=O)Nc2nc(-c3ccccc3)c(-c3ccccc3)o2)cc1 | active: 3.53
29 | CCCc1cc(=O)n2[nH]c(-c3cc(OC)c(OC)c(OC)c3)nc2n1 | -0.544
30 | O=C(CSc1nnc(Cc2ccccc2)o1)NCCN1C(=O)CSC1=O | -0.181
31 | CC(C)CC(=O)NC(=S)N(Cc1ccccc1)Cc1ccccc1 | active: 8.66
32 | CCOC(=O)c1c(C)nc(C)c(C(=O)OCC)c1-c1ccc(OC)cc1 | 1.15
33 | CCOC(=O)C1=C(C)N(c2ccccc2)C(=O)/C1=C\c1ccco1 | -0.139
34 | O=C(COC(=O)c1cccc(NS(=O)(=O)c2ccc(F)c(F)c2)c1)NC(=O)NC1CCCCC1 | -0.828
35 | CSc1nc(C)cc(OCC#N)n1 | -0.071
36 | CCC(C)(C)n1nnnc1C(c1ccc(OC)c(OC)c1)N1CCN(c2ccc(F)cc2)CC1 (stereo not given) | 0.257
37 | CCn1c(SCC(=O)Nc2ccc(N(C)C)cc2)nnc1-c1cccc(C)c1 | -0.128
38 | O=C(NCc1cccc(Cl)c1)NCc1cccc(Cl)c1 | 0.0207
39 | COCCCNS(=O)(=O)c1ccc(S(=O)(=O)N2CCCC2)cc1 | 0.875
40 | COc1ccc(S(=O)(=O)c2ccc(OC)c(OC)c2)cc1OC | -0.225
41 | CCOC(=O)Nc1ccc2c(c1)OCO2 | -0.392
42 | Cc1cc(C)c(C#N)c(Nc2ccc3c(c2)OCCO3)n1 | -0.503
43 | CCCC(=O)Nc1ccc(OCC(=O)OC)cc1 | 0.119
44 | O=C(NCc1ccco1)c1cc(-c2ccc(F)cc2)on1 | 0.0819
45 | Cc1ccc(-n2c(CNc3ccc(F)cc3)nnc2SCC(=O)N2CCOCC2)cc1 | -0.0678
46 | Cc1cc2oc(=O)cc(CSc3nnc(C)n3N)c2cc1C(C)C | -0.349
47 | Cc1cc(C)nc(NC2=NCC(=O)N2c2cccc(Cl)c2)n1 | -0.0559
48 | C=CCn1c(N)cc(=O)nc1SCC(=O)Nc1ccc2ccccc2c1 | -1.38

Row | Structure (SMILES) | z-score
49 | O=C(COc1ccc2ccccc2c1)NNC(=O)c1cccs1 | 0.323
50 | Cc1ccc(-c2c(=O)n(OCc3ccccn3)c3ccccc3[n+]2[O-])cc1 | -0.0797
51 | CC(=O)Nc1nc2ccc(NC(=O)c3ccco3)cc2s1 | -0.0812
52 | Clc1cccc(NCc2nnc(SCc3ccc(Cl)cc3Cl)o2)c1 | 0.273
53 | CCOc1ccc2nc(NCCCNS(=O)(=O)c3ccc(F)cc3)c(C#N)cc2c1 | -0.286
54 | CCOC(=O)c1c(C)c(C(=O)NCc2cccs2)c(C)n1C | -0.189
55 | Cn1ncc(N=Cc2ccccc2)c1C(N)=O | -0.121
56 | Nc1ccccc1C(=O)NNc1ncc(C(F)(F)F)cc1Cl | 0.251
57 | COCc1nnc(NC(=O)c2ccco2)s1 | 0.76
58 | CCOC1(OCC)C(c2ccc(Cl)cc2)C(C#N)(C#N)C1(OCC)OCC (stereo not given) | -0.0787
59 | COc1ccc(OC)c(C(c2nnnn2Cc2ccccc2)N2CCC(C(N)=O)CC2)c1 (stereo not given) | 0.581
60 | Cc1cccc(N(C(=O)c2nsc(Cl)c2Cl)C(C(=O)NC2CCCC2)c2ccc(O)cc2)c1 (stereo not given) | -0.237
61 | CCOC(=O)C(CCCCOc1ccc([N+](=O)[O-])cc1)C(=O)OCC | -0.0991
62 | COc1ccc(S(=O)(=O)N2c3cc(C)ccc3OCC2C(C)(C)C)cc1 (stereo not given) | -0.442
63 | Cc1cc(NCCCCO)n2c(nc3ccccc32)c1C#N | -0.387
64 | C=CCOc1c(Br)cc(/C=N/NC(=O)Cc2ccc(C(F)(F)F)cc2[N+](=O)[O-])cc1OC | -0.148
65 | CCc1nnc(NC(=O)c2ccc(S(=O)(=O)N(CCOC)CCOC)cc2)s1 | -0.106
66 | CCOC(=O)N1CCN(c2cc(=O)n(-c3ccccc3Cl)c(=O)[nH]2)CC1 | -0.091
67 | COC(=O)c1sccc1NC(=O)C12CC3CC(CC(C3)C1)C2 | -0.00272
68 | CCc1cccc2c(=O)c(C(=O)N3CCCCCC3)c[nH]c12 | -0.527
69 | Cc1ccc(N=C2NC(=O)S/C2=C\c2ccco2)cc1 | -0.4
70 | COc1ccc(C(=O)NC(C)(C)C)cc1S(=O)(=O)N1CCCC1 | -0.0729
